In the supplement of paper PMC11417369:
± gives the standard deviation of the averaged measurements. This is one part of the list.

test system: PfAP2-EXP AP2 domain (GST-tagged); assay: gcPBM binding intensity (ln(normalized median fluorescence intensity)); higher = stronger DNA binding
Outline: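 GST-fused DNA-binding domains of P. falciparum, expressed in E. coli, were applied at about 25 μg on average for 1 h to an Agilent 4 × 180k array of primer-extended double-stranded 36-bp intergenic genomic probes and negative controls. Binding intensity is the highest Masliner-normalised natural-log median intensity across replicate spots of either probe orientation, measured with Alexa488 anti-GST antibody and a 488 nm scan.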

Sequence | gcPBM binding intensity (ln)
TTACAATATAATAAATGTACATATAACAAATATATA [XGTACX_site2199] | 8.77 ± 0.47
TTTTTTTTTTTTTGTAGTACATACTATTTTATTAAT [XGTACX_site950] | 8.39 ± 0.57
TAGATGTATTTTTAAAGTACTTTTTAATATATAATC [XGTACX_site1431] | 8.3 ± 0.17
AGAATTATATACACAAGTACATAATGACATATATAT [XGTACX_site5617] | 8.42 ± 0.35
TAAAAAATTATATTCACACACATACACATATATATA [CACACA_site545] | 8.54 ± 0.43
AAAATATGTTAATATTGTACTTAAATAAAAAAAATA [XGTACX_site7152] | 8.37 ± 0.28
ATTCTTAAAATAAAATGTACGAAAAAAAAAAAAAAA [XGTACX_site1657] | 8.28 ± 0.52
TATATATATATAAACGCATGTAATTTATACACACAT [TGCATGCA_site946] | 9.91 ± 0.33
ATCTTTCCTTTTGCATGTACATATGGAAATACTTTT [XGTACX_site6995] | 9.17 ± 0.18
ATAATTAAGTTATGTGTGCACTGTTAAAAATAAATG | 9.35 ± 0.19
ATACACATAACATATATATATATATATATATATATC [CACACA_negctrl_site278] | 8.915 ± 0.021
TTTTATGATATTTACACACAAACGTGAGATAGCTCA [CACACA_site2311] | 8.33 ± 0.41
AATATAATATCTATAATATAAAAAAAACAAAAAAAA [CACACA_negctrl_site875] | 8.36 ± 0.53
TTTTTTATTTTTTACATATTTAGCTCATATTTATAT [GTGCAC_negctrl_site491] | 8.57 ± 0.3
TAAAAGGATACATATACACACATATATATATATATA [CACACA_site2791] | 10.2 ± 0.42
ATATTTTTATATAATGAACACACATATTATATCATT [CACACA_site8446] | 8.34 ± 0.43
TTCTTCAACAAAAAAATAAAAATAAAATAATAAAAA [GTGCAC_negctrl_site619] | 8.4 ± 0.39
ATAAATCGATAAAATATATGCTACATGAATAAATAA [XGTACX_negctrl_site604] | 8.49 ± 0.42
TTTAAAAAATTATATTCACACACATACACATATATA [CACACA_site8076] | 8.51 ± 0.59
TAACTATTATAAAAATGTACAAATGAAAATATTTTT [XGTACX_site1438] | 8.63 ± 0.47
CTTTATTATAAGATTACACACATGTCTTATAATTTA [CACACA_site5715] | 8.54 ± 0.47
TAAAAGTTTTTATACATACACACCTATAAATTAAGT [CACACA_site2446] | 8.49 ± 0.4

Sequence | gcPBM binding intensity (ln)
AAAATAAAAATAAAAGCACACATAAATATATATATA [CACACA_site8409] | 9.64 ± 0.28
TACCAAAAAAAAAAAAATAAAAATAAAAAAAAAAAT [CACACA_negctrl_site1714] | 8.18 ± 0.54
TTCCTGTTAATTACAACACACAATTTTTATTTTATG [CACACA_site779] | 8.81 ± 0.42
TAATTAAATACATTAACACACACACTAATATATACA [CACACA_site8938] | 8.69 ± 0.52
AAGGCATGACTATCTGCACACATAAAAATAAGAAAT [CACACA_site8180] | 8.85 ± 0.49
TAAACATAATAATATACACACATATATTGATATATA [CACACA_site2144] | 8.18 ± 0.43
TAAAAAAAAATATAATGTACGTATAAATATATATTA [XGTACX_site5085] | 8.61 ± 0.35
AATTTTTTTTTTTTGTGTCCTCATAATTCTTCATTC [XGTACX_site5042] | 8.62 ± 0.39
TATATTTATTTAAAAACATGCATTTTTTTTTTCCGT [TGCATGCA_site44] | 9.38 ± 0.27
TTTTTTTTTTTTACATGTACTTATTTTAAATATAAA [XGTACX_site805] | 8.86 ± 0.37
AAAATTAAAACCTACACACACATTTAAAAAAAAAAA [CACACA_site3068] | 8.41 ± 0.5
ATTTTTTTGGTAATTTGTACATAATATATACATAAT [XGTACX_site3742] | 8.8 ± 0.38
ATATATTTATAGACTTGTACATATATATACGATATA [XGTACX_site8890] | 8.41 ± 0.3
TATATTATAGGTTGTGTACACATATTATATAGTACT [CACACA_site4583] | 8.68 ± 0.15
TTTTTTTTTTTTTTTTGTACTTATAAAATAACATGT [XGTACX_site134] | 8 ± 0.071
TAATACTTAGAGAAAAGTACGTATGAACTTATGTAA [XGTACX_site5504] | 8.42 ± 0.4
TTTTGTTTAGTGTATTGTACAATATATCTTTATTTT [XGTACX_site5163] | 8.78 ± 0.42
AGTCCTTACACATATATTAAATATGTGTATATATAT [XGTACX_negctrl_site336] | 8.78 ± 0.099
AAAAAAAAAAAAAAAAGTACATATATATATATAATT [XGTACX_site4437] | 8.53 ± 0.19
TATTAATACGGACACACACACACACTAGATAAAATA [CACACA_site4295] | 8.89 ± 0.38
AAACATTTATGAAGGTGTACAAAAATGAATTAAAAA [XGTACX_site7035] | 8.8 ± 0.41
TATTTAAATACTGACGCATGCATAAGGAGTAATAGT [TGCATGCA_site465] | 9.98 ± 0.47

Sequence | gcPBM binding intensity (ln)
ATATTGAAAATTTGAAGTACATCTAAATATATTATT [XGTACX_site7817] | 8.38 ± 0.25
TTTATAATAAAAAATACATGCAGTTATATATAATAA [TGCATGCA_site654] | 9.14 ± 0.23
ATAATGTGTTTGGTATTCTTGATAGATAGTTTTGTG [CACACA_negctrl_site68] | 8.47 ± 0.46
TATATATAAATAAACACACACAAATATAATAAAAAA [CACACA_site3526] | 8.85 ± 0.28
ATCCGTGTCTGAAATACACACATGACAATGTGAATG [CACACA_site6556] | 8.39 ± 0.37
TATTTTACATAAAAGAAAAAAAAAAAAAAAAAAAAA [CACACA_negctrl_site1460] | 7.87 ± 0.49
TATAAAAAAATAATAAAATAATAAAATATATAAATA [TGCATGCA_negctrl_site394] | 8.27 ± 0.28
ATTCTATTATCCTTTGCACACAAAATAAATGAAAAA [CACACA_site3030] | 8.79 ± 0.15
TTTTAAAAGGTAAAATGTACATATATAATATATACA [XGTACX_site1222] | 8.59 ± 0.53
TATATATTATATATTTGTACATATATATAAAAACTT [XGTACX_site449] | 8.34 ± 0.25
CCTTCCTTGAATTTTACATGCAAAAAATTATAAAAC [TGCATGCA_site663] | 9.06 ± 0.35
ATTTTTATTTTTTTTGTGCACATTTTCATTTTCTAT [GTGCAC_site9580] | 9.23 ± 0.34
TTATTAAAATATACATTTGAAAGTAATCTTATTTAA [XGTACX_negctrl_site431] | 7.76 ± 0.45
TTTTTTCAATATTATATCCAAAAATATTTGTAAATA [TGCATGCA_negctrl_site596] | 7.99 ± 0.4
ATAGTATATCAAAATTTGTAAATCATTCTCAATAAA [CACACA_negctrl_site430] | 8.12 ± 0.29
AAAAAAAAAATTTTCGTGCACATAAGAAAATTTAAA [GTGCAC_site9788] | 8.78 ± 0.18
CATACATACAAACACACACACATATAAATACATACA [CACACA_site4625] | 8.69 ± 0.47
AAAAAAAAAAAAAAAACACACATATCTGTATTTATA [CACACA_site5760] | 8.54 ± 0.25
ACATTGTTGGTGTTAGTGCATTGGTAAATATTATAT | 8.82 ± 0.31
TATTTAAAGATATATACACACATTTGATATTATTAT [CACACA_site6509] | 8.28 ± 0.38
CACACGTAAAAGTATAATATAAAAAAGGTATACACT [CACACA_negctrl_site127] | 8.66 ± 0.4
ACCTACATACATATGTGTACTTATTTGTATTCACTG [XGTACX_site7124] | 8.9 ± 0.4

Sequence | gcPBM binding intensity (ln)
TTTATAAACAAATGAACACACAAACATATTTATATA [CACACA_site7478] | 8.62 ± 0.38
ATAATATATGAAAAAACGATTTTTTCATTTTAAATA [XGTACX_negctrl_site146] | 8.25 ± 0.34
TTTTAGCTATTTTAATATAATGAAGCAAAAAATAAA [TGCATGCA_negctrl_site576] | 8.49 ± 0.25
ATAATAAATTCTACGCGTACAAAACCATGAACATTA [XGTACX_site7505] | 8.7 ± 0.42
CTTTCAAAATTATTTATAGTATCTCATATTTTAGTA [XGTACX_negctrl_site72] | 8.03 ± 0.55
ACACATATGTATATATGTACTTATATATATATATAT [XGTACX_site8632] | 10 ± 0.62
ATCCTTTATAAATAAGTGCATATAAAAAATAATATT [GTGCAC_site9759] | 8.52 ± 0.11
TTTATTAATAAAAAGGTGCAATCAGGAAAAATTATC [GTGCAC_site9626] | 9.19 ± 0.099
AATATATATATATTATGTACACATAGAAATATATTA [XGTACX_site3874] | 8.45 ± 0.39
TCATATTCCAAAAAAAAAAAAAAAAAAAAAAAAATA [CACACA_negctrl_site1293] | 7.73 ± 0.57
AATTATATATAAAAAGTGCAAAACGATAATTCATCA | 9.16 ± 0.33
ATGTATTACTTAAATATATGAAACATATTACTTTTA [CACACA_negctrl_site496] | 7.97 ± 0.38
GTTCTTTCAAGTTATACACACCAAAAAAAAAAAAAA [CACACA_site7435] | 8.38 ± 0.42
AATATCATCAAACGCACACATACATAAATATATTAT [CACACA_site2174] | 8.64 ± 0.4
AACGGGGCCAAGAAATATAAATAATCAAAACAAAAA [XGTACX_negctrl_site320] | 8.7 ± 0.54
TGTGCACGCATATACACACACAAATACAATGATAAA [CACACA_site6656] | 8.65 ± 0.36
TGTTATATTTGTGCGTGTACACATTTGAAAAAATAT [XGTACX_site3796] | 8.8 ± 0.18
TTTCTTTATTTTTTTTTTTTTTTTTTTCCTTTTTTT [TGCATGCA_negctrl_site231] | 7.76 ± 0.078
AAATGAATAAAATTTATTTATAAAAGAAAAATCACA [GTGCAC_negctrl_site225] | 8.43 ± 0.33
AGTGTGTGTGCGTATAGTACATATACATATATACAC [XGTACX_site6882] | 8.7 ± 0.23
ATAATACAAAATACATGTACAAATATTTTTCATATT [XGTACX_site1721] | 8.48 ± 0.35
